The whole screen tested about 310,000 compounds, of which about 2,200 (0.71%) showed an effect of 50% or more. The effect is printed as a negative number. Some of the results follow.
Biological target: human ether-à-go-go-related gene (hERG) potassium channel (human, UniProt Q12809)
Assay: primary screen, population patch clamp on CHO cells stably expressing hERG

human ether-à-go-go-related gene (hERG) potassium channel, sequence (Q12809 whole entry, looked up): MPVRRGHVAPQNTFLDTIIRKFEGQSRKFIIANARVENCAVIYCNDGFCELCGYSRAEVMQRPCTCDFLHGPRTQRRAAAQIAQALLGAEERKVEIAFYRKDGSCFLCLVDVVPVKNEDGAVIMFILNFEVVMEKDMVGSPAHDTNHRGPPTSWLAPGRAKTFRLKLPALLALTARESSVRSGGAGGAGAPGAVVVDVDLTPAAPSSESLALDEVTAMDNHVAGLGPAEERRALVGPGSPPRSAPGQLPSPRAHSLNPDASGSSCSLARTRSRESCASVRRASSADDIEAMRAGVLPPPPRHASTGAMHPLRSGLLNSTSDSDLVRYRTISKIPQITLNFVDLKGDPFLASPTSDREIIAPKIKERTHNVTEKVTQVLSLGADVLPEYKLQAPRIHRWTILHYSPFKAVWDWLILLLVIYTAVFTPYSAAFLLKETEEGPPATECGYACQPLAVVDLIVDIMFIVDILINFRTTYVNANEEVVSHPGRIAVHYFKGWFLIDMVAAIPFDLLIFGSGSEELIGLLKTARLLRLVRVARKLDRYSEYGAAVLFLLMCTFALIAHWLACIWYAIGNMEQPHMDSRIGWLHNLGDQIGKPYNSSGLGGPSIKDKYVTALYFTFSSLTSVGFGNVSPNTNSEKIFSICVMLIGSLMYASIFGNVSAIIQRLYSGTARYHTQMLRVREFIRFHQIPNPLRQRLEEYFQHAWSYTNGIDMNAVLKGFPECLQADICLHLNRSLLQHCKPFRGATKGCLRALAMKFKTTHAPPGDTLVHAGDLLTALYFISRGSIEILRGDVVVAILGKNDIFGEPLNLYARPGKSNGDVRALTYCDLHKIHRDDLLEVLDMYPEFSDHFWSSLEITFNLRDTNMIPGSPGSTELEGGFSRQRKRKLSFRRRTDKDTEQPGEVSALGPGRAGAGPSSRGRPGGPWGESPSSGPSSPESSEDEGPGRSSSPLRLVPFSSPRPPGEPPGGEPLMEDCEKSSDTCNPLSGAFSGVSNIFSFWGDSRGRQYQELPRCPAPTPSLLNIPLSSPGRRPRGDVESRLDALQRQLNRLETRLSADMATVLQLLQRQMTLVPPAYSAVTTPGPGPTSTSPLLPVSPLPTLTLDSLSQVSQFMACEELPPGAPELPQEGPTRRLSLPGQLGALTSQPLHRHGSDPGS

| SMILES | hERG current change (%, negative = inhibition) at 1uM [%] |
| --- | --- |
| COCCNC(=O)CN1CCOc2ccccc21 | 8.36 |
| COc1ccc(S(=O)(=O)NCC2CCCN(C(=O)c3cccnc3C)C2)cc1 (centres unmarked) | 14 |
| O=C(CN1CCN(Cc2ccccc2)CC1)Nc1ccc(F)c(F)c1.O=C(O)C(=O)O | -21.9 |
| O=S(=O)(/N=C(/c1ccccc1Cl)N1CCOCC1)c1ccccc1 | 10.9 |
| c1ccc(Cn2ncc3c(Nc4ccccc4)ncnc32)cc1 | 10.3 |
| CC(NC(=O)c1ccc(Br)s1)C1CCCO1 (centres unmarked) | 9.5 |
| O=C(CSc1ccc(-c2ccco2)nn1)N1CCCC1 | 7.89 |
| COC(=O)[C@@H]1CCCN1C(=O)c1ccc(OC2CCN(Cc3ccccn3)CC2)cc1 | 27.3 |
| NNC(=O)c1cccc(COc2ccccc2Br)c1 | 8.34 |
| CC(=O)c1sc(NC(=O)CCCOc2ccc(Cl)cc2)nc1C | 12.8 |
| CCOc1cccc(/C=N/NC(=S)NCCN2CCOCC2)c1O | 11.2 |
| C=C(C)[C@H]1CC=C(C)/C(=N/NC(=O)CNc2ccccc2OC)C1 | 20.6 |
| Cc1cc(C)nc(Nc2n[nH]c(COc3ccccc3)n2)n1 | 9.69 |
| Cc1ccccc1CNc1ccc(C(CC(N)=O)NC(=O)c2ccc(Br)cc2)cc1[N+](=O)[O-] (centres unmarked) | 10.8 |
| CCOc1ccccc1-c1nc(C(N)=O)c2[nH]c(=O)n(-c3cccc(C)c3)c2n1 | 7.19 |
| CC(=O)C1=C(C)OC(N)=C(C#N)C1c1cccc([N+](=O)[O-])c1 (centres unmarked) | 12 |
| O=C(c1ccco1)c1nnn(Cc2ccccc2)c1-c1ccccc1 | 2.97 |
| O=C1c2ccc3c4c(ccc(c24)C(=O)N1c1cccc(O)c1)C(=O)N(c1cccc(O)c1)C3=O | 5.14 |
| O=C(NCCN1CCN(c2ccccc2)CC1)Nc1cccc(Br)c1 | -9.25 |

| SMILES | hERG current change (%, negative = inhibition) at 1uM [%] |
| --- | --- |
| CSc1nc2n(n1)C(c1ccccn1)C1=C(CC(C)(C)CC1=O)N2 (centres unmarked) | 6.46 |
| Cc1ccc(C)c(OCC(O)CN2C(C)CCCC2C)c1.Cl (centres unmarked) | -34.9 |
| Cc1cccc2c(N=NC(=O)C(C)n3cnc4ccccc4c3=O)c(O)[nH]c12 (centres unmarked) | -2.25 |
| O=S(=O)(NCC(c1ccccc1)N1CCC(O)CC1)c1ccc(Cl)cc1 (centres unmarked) | 3.21 |
| O=c1nc(N2CCCCC2)nc(Nc2ccccc2)[nH]1 | 3.72 |
| Cc1cc(C)cc(N(C(=O)c2snc(C(N)=O)c2N)C(C(=O)NCC2CCCO2)c2cccs2)c1 (centres unmarked) | 0.0583 |
| COc1ccc(CCNC(=O)C(=O)NCC2OCCN2S(=O)(=O)c2ccc(OC)c(OC)c2)cc1OC (centres unmarked) | 7.99 |
| O=C(N/N=C/c1cn[nH]c1-c1ccccc1)c1ccco1 | 12 |
| COc1ccc(CCn2c(=N)c(C(=O)NC3CCCC3)cc3c(=O)n4ccccc4nc32)cc1 | -89.2 |
| OCCC1CN(Cc2cccn2-c2ccccn2)CCN1Cc1ccccc1 (centres unmarked) | -61.4 |
| COc1cccc(NC(=O)N2CCCC2C(=O)NCc2ccco2)c1 (centres unmarked) | 9.13 |
| O=C(NNc1ncnc2c1cnn2-c1ccccc1)c1cccs1 | 8.34 |
| COc1ccccc1-n1c(SCC(=O)N(C)C2CCS(=O)(=O)C2)nc2ccccc2c1=O (centres unmarked) | 7.61 |
| COC(=O)c1ccc(NC(=O)CNC(=O)c2sc3ccccc3c2Cl)cc1 | 7.15 |
| O=C(COc1ccccc1)NCc1ccc(-n2cccc2)cc1 | 13.1 |
| CC(C)C(=O)Nc1nc2c(c(=O)[nH]1)CCCC2 | 14.6 |
| CC1CCCC(NC(=O)c2cccc(S(=O)(=O)N3CCN(c4ccccc4)CC3)c2)C1C (centres unmarked) | 11.5 |
| O=C(c1ccc(S(=O)(=O)N2CCCCC2)cc1)N1CCCc2ccccc21 | 7.58 |
| Cc1cc(C(=O)CSc2nnc(N)s2)c(C)n1CCc1ccc(F)cc1 | 6.05 |

| SMILES | hERG current change (%, negative = inhibition) at 1uM [%] |
| --- | --- |
| COC(=O)c1ccc(OS(=O)(=O)c2ccc(NC(C)=O)cc2)cc1 | 15.8 |
| CC(C)c1ccc(C(=O)NNC(=O)c2ccncc2)cc1 | 23.4 |
| COc1cccc(C(=O)NNC(=O)C(=O)Nc2ccc(OC)cc2OC)c1 | 11.3 |
| O=C(C1CCCN1C(=O)c1cccs1)N1CCN(Cc2ccc3c(c2)OCO3)CC1 (centres unmarked) | 2.52 |
| Cc1ccc(NC(=O)C2CCN(S(=O)(=O)c3cccc(C(F)(F)F)c3)CC2)nc1 | 7.6 |
| C=CCOC(=O)C1=C(C)NC(SCC(N)=O)=C(C#N)C1c1ccc(C)cc1 (centres unmarked) | 9.63 |
| COc1ccccc1N1CCN(C(=O)c2oc3c(c2C)C(=O)CC(C)(C)C3)CC1 | 6.43 |
| COc1ccc(C(=O)N(C)CCCC2CCCC2)cc1OC1CCN(C(C)=O)CC1 | -0.899 |
| NS(=O)(=O)c1ccc(CCNC(=O)c2cnccn2)cc1 | 12.7 |
| O=C(Nc1ccc(Br)cc1)c1cccc(-n2cnnn2)c1 | 10.7 |
| COc1ccc(C(=O)NNC(=O)C2=NN(c3ccccc3)C(=O)CC2)cc1 | 16.1 |
| Cc1cccc(-c2nc(CSCC(=O)N3CCN(c4ccccn4)CC3)c(C)o2)c1 | -12.1 |
| COc1ccc(NC(=O)N2CCCc3ccccc32)c(OC)c1 | 0.623 |
| CCn1c(SCC(=O)N/N=C/C=C/c2ccccc2[N+](=O)[O-])nnc1-c1ccc(Cl)cc1 | 4.52 |
| Cc1cc2cc3c(cc2nc1SCC(=O)O)CCC3 | 6.91 |
| Cc1ccc(OCc2nnc(NC(=O)OCC(C)C)s2)c(C)c1 | 20.1 |
| CCC1CCC(NC(=O)Nc2cccc(OC)c2)CC1 (centres unmarked) | 5.22 |
| CCCCn1nnnc1NCc1ccc(OC)c(OC)c1 | 13.9 |

Reference: PMC4336329 (PLoS ONE, 2015)
